To fix the notation:
B1: Caulobacter ParB omega fusion; a variant is named by its letters at X, in order, B8GW30 (parent)
chain: MESVVVGEPGMSEGRRGLGRGLSALLGEVDAAPAQAPGEQLGGSREAPIEILQRNPDQPRRTFREEDLEDLSNSIREKGVLQPILVRPSPDTAGEYQIVAGERAWRAAQRAGLKTVPIMVRELDDLAVLEIGIIENVQRADLNVLEEALSYKVLMEKFERTQENIAQTIGKSXSHVANXMRLLXLPDEVQSYLVSGELTAXHARAIAAAADPVALAKQIIEGGLSVRETEALARKAPNLSAGKSKGGRPPRVKDTDTQALESDLSSVLGLDVSIDHRGSTGTLTITYATLEQLDDLCNRLTRGI

In all, about 81,000 sequences were measured (“one-hybrid fitness for binding NBS DNA”: median about -0.1, highest 2% from about 0.36 on). The list shows a part of the results.

This assay covers variants of B1. The assay can be described thus: one-hybrid fitness for binding NBS DNA (the Noc-binding site; scaled: cognate 1, non-cognate 0); higher = stronger binding. Particulars: with NBS DNA site. Put shortly: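 In E. coli USO, a HIS3 reporter with its site placed 19 bp from the promoter was used to select Caulobacter ParB variants randomised at four specificity codons. Growth lasted 48 hours at 37°C on histidine-free M9 containing 0.1 mM IPTG and 5 mM 3-AT. Fitness was taken as the log change in variant-to-wild-type read ratio from Illumina sequencing of pre- and post-selection plasmids, rescaled between the non-cognate and cognate sites.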
Take HRDG: the “one-hybrid fitness for binding NBS DNA” value is no more than 0.2. The result for AQHG reads no more than 0.2. The result for RPCA reads no more than 0.2; that for GMLT, no more than 0.2; that for LATF, no more than 0.2. The result for LGYW reads no more than 0.2. Consider GCYS, for which the “one-hybrid fitness for binding NBS DNA” value was no more than 0.2.

For the variant PASM, the “one-hybrid fitness for binding NBS DNA” value was no more than 0.2. For the variant RVRS, the “one-hybrid fitness for binding NBS DNA” value came out at 0.577.

In the case of NGIA, the “one-hybrid fitness for binding NBS DNA” value is no more than 0.2. The result for DTEI reads no more than 0.2. The result for NKRM reads no more than 0.2; that for KTMM, no more than 0.2; that for DNNN, no more than 0.2. The result for DNSI reads no more than 0.2; that for VGHC, no more than 0.2; that for RSFT, no more than 0.2.

Regarding GNKF, the “one-hybrid fitness for binding NBS DNA” value is no more than 0.2.

Turning to RPEC, the “one-hybrid fitness for binding NBS DNA” value was no more than 0.2. The result for QKRW reads 0.226; that for AKWG, no more than 0.2. The result for KTNY reads no more than 0.2; that for ELHL, no more than 0.2.

For LSVG, the “one-hybrid fitness for binding NBS DNA” value was no more than 0.2. The result for AAQN reads no more than 0.2. Take TTIR: the “one-hybrid fitness for binding NBS DNA” value is no more than 0.2. With CRLS, the “one-hybrid fitness for binding NBS DNA” value is no more than 0.2. On to EATF, for which the “one-hybrid fitness for binding NBS DNA” value was no more than 0.2. The value for RTSP was no more than 0.2; that for FDRS was no more than 0.2. The value for DLLS was no more than 0.2. The result for DRSG reads no more than 0.2. For CSYL, the “one-hybrid fitness for binding NBS DNA” value was no more than 0.2. The value for SCWC was no more than 0.2; that for MYQS was no more than 0.2; that for SVEL was no more than 0.2. The value for TGPP was no more than 0.2; that for ARKC was no more than 0.2. The value for YKST was no more than 0.2; that for DVGA was no more than 0.2; that for SFVF was no more than 0.2. For the variant HTDT, the “one-hybrid fitness for binding NBS DNA” value was no more than 0.2. The result for LLNG reads no more than 0.2; that for TYQS, no more than 0.2; that for NPWR, no more than 0.2.

In the case of RDGL, the “one-hybrid fitness for binding NBS DNA” value is no more than 0.2. In the case of WVSG, the “one-hybrid fitness for binding NBS DNA” value was no more than 0.2. The result for TNKA reads no more than 0.2; that for RYIM, no more than 0.2. The result for PKSK reads no more than 0.2. The result for FRAP reads no more than 0.2; that for QYAH, no more than 0.2. Regarding STRH, the “one-hybrid fitness for binding NBS DNA” value was no more than 0.2. The result for RDPI reads no more than 0.2. Turning to LATN, the “one-hybrid fitness for binding NBS DNA” value was no more than 0.2. The value for LLGI was no more than 0.2.

Consider SHSV, for which the “one-hybrid fitness for binding NBS DNA” value is no more than 0.2.

In the case of NTDF, the “one-hybrid fitness for binding NBS DNA” value was no more than 0.2. With CTQT, the “one-hybrid fitness for binding NBS DNA” value was no more than 0.2. Regarding NQLT, the “one-hybrid fitness for binding NBS DNA” value was no more than 0.2. Regarding THQL, the “one-hybrid fitness for binding NBS DNA” value was no more than 0.2.

As for AGQF, the “one-hybrid fitness for binding NBS DNA” value was no more than 0.2. For QSDM, the “one-hybrid fitness for binding NBS DNA” value was no more than 0.2. PPQN: the “one-hybrid fitness for binding NBS DNA” value was no more than 0.2.

As for AGKG, the “one-hybrid fitness for binding NBS DNA” value was no more than 0.2. The result for ERKH reads no more than 0.2; that for KTRW, no more than 0.2; that for NAKR, no more than 0.2. The result for QEHA reads no more than 0.2; that for AKGD, no more than 0.2.

Take YKKT: the “one-hybrid fitness for binding NBS DNA” value is 0.225. The result for RYQM reads no more than 0.2. The value for AKQR was no more than 0.2; that for KKRR was 0.47.

Consider TIEP, for which the “one-hybrid fitness for binding NBS DNA” value was no more than 0.2. REPE: the “one-hybrid fitness for binding NBS DNA” value is no more than 0.2.

With QYAE, the “one-hybrid fitness for binding NBS DNA” value was no more than 0.2. The result for NGLR reads no more than 0.2; that for EADC, no more than 0.2.

Take KPRA: the “one-hybrid fitness for binding NBS DNA” value is no more than 0.2. The result for SPHA reads no more than 0.2; that for TSEA, no more than 0.2. The result for VDIC reads no more than 0.2; that for AGPW, no more than 0.2. With RQAP, the “one-hybrid fitness for binding NBS DNA” value was no more than 0.2.

Turning to QSGR, the “one-hybrid fitness for binding NBS DNA” value is 0.547. The value for ARHK was no more than 0.2; that for ATSK was no more than 0.2. The result for NTGR reads no more than 0.2. As to SVDP, the “one-hybrid fitness for binding NBS DNA” value was no more than 0.2.

For RWQQ, the “one-hybrid fitness for binding NBS DNA” value was no more than 0.2. The result for LMVL reads no more than 0.2; that for ERFS, no more than 0.2. The result for WITC reads no more than 0.2; that for CIQC, no more than 0.2; that for WRDL, no more than 0.2. Turning to GRRL, the “one-hybrid fitness for binding NBS DNA” value was no more than 0.2.

Source of the values: a collection of fitness landscapes (doi:10.1016/j.celrep.2020.107928).
